Eleven compounds from US20060052435A1, “Selective dopamin d3 receptor agonists for the treatment of sexual dysfunction” (priority 2001, published 2006) can be followed below.

Test [1] addresses T1, human dopamine D3 receptor (Homo sapiens, UniProt P35462, G9S). As to conditions: for Functional selectivity (D3 over D2): Table 5.
Test [2] concerns the target T1, human dopamine D3 receptor. Description: cell-based.

As usually defined, the EC50 is the concentration giving half of the maximal effect. Higher therefore signals weaker potency.

A value given as a limit tells only on which side of the number the result lay.

For `CCCN1CCOC(c2cc(O)cc(O)c2)C1` (racemic) [Example 15a + 15b (racemate)], in test [1], the “Functional selectivity (D3 over D2)” value is given as >112-fold. Further, the EC50 in test [2] was 89 nM. The corresponding values for `CCCN1CCOC(c2ccc(F)c(O)c2)C1` (racemic) [Example 23a + 23b (racemate)] are >76.9-fold and around 65 nM. The corresponding values for `CCCN1CCOC(c2cc(O)cc(O)c2)C1` (single isomer, unassigned) [Example 15a, R-5-(4-Propylmorpholin-2-yl)benzene-1,3-diol] are 22.7-fold and 77 nM. For `CCCN1CCOC(c2ccc(F)c(O)c2)C1` (single isomer, unassigned) [Example 23a, R-(+)-2-Fluoro-5-(4-propylmorpholin-2-yl)phenol] the same measures were >76.9-fold and 65 nM. Consider `CCCN1CCO[C@H](c2cccc(O)c2)C1.Cl` [Example 8, R-(−)-3-(4-Propylmorpholin-2-yl)phenol hydrochloride], for which, in test [1] (Table 4), the “D3 selectivity over D2” value worked out at 681. Besides, the “Functional selectivity (D3 over D2)” value in test [1] was 681-fold. For the same compound, the “D3 over D2 selectivity relative to that shown by pramipexole” value in test [1] (same functional assay) was “more than 3 times”.

`CCCN1CCOC(c2ccc(O)c(C(N)=O)c2)C1` (stereo not drawn) [Example 35, 2-Hydroxy-5-(4-propylmorpholin-2-yl)benzamide]: the “Functional selectivity (D3 over D2)” value in test [1] is “˜21.0-fold”. In test [2], a half-maximal effect (EC50) was put at 501 nM.

For `CCCN1CCOC(c2ccc(O)c(N)c2)C1` (stereo not drawn) [Example 37, 2-Amino-4-(4-propylmorpholin-2-yl)phenol], the “Functional selectivity (D3 over D2)” value in test [1] is given as >111.7-fold. This compound gave an EC50 in test [2] of 895 nM. `CN[C@@H]1Cc2cccc3[nH]c(=O)n(c23)C1.O=C(O)/C=C\C(=O)O` [PNU-95666]: the Dopamine receptor preference result in test [1] (Table 4) was “Balanced”. In the case of `CCCNC1CCc2nc(N)sc2C1.Cl.Cl` (stereo not drawn) [Pramipexole, 2-amino-4,5,6,7-tetrahydro-6-propylamino-benzthiazole-dihydrochloride], it took 0.56 nM to reach a half-maximal effect in test [2] (EC50).

On to `CCCN(CCC)CCc1cccc2c1CC(=O)N2` [Ropinirole], for which, in test [1] (Table 4), the Dopamine receptor preference result was “Balanced”. In the case of `c1ccc(N2CCN(C[C@H]3CC[C@H](Nc4ncccn4)CC3)CC2)cc1` [trans-[4-[(4-Phenylpiperazin-1-yl)methyl]cyclohexyl]-pyrimidin-2-ylamine], the “functional D2/D3 preference” value in test [1] is given as “D2-preferring agonist”. Further, the “Functional Potency EC50* (nM) D3LGH4 C1 (human)” value in test [1] (Table 4) is “No effect”. In test [2], the EC50 was above 100 nM.
